Reference: the supplement of paper PMC3334620
Whole data set: some 33,000 sequences, median “E-score (-0.5 to 0.5)” near -0.04, cut for the highest 2% near 0.36. Some of the results follow.

Molecular target: T1, Hmlalpha2 (UniProt P0CY09)
T1 sequence: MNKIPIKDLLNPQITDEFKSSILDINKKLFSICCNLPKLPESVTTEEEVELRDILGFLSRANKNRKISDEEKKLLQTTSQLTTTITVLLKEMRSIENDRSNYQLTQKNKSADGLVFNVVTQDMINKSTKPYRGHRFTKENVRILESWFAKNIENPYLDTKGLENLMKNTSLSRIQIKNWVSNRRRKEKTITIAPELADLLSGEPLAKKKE
Experiment: PBM E-score (8-mer binding enrichment) (E-score (-0.5 to 0.5)); higher = stronger / more preferred TF binding; most listed sequences are background and not binding sites
Details: protein concentration: 200 nM; construct: GST-full length
How it was run: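 Yeast transcription factors carrying a GST tag, as full-length proteins or DNA-binding domains, were produced by PURExpress in vitro transcription/translation. About 100-200 nM protein was applied to universal all-10-mer Agilent arrays, double-stranded by primer extension on fresh or once-stripped slides. Bound protein was detected with fluorescent anti-GST, and scans were normalised with masliner. The Universal PBM Analysis Suite gave each ungapped eight-base word, pooled with its reverse complement, an E-score, a modified Wilcoxon-Mann-Whitney statistic.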

In order of falling “PBM E-score” value:
1. CATGTAAC  0.456
2. CGTGTGTA  0.413
3. ATGTGAAG  0.338
4. GTAACTAC  0.324
5. ACACGTCA  0.317
6. TGTAGTAA  0.311
7. ACAAACGA  0.291
8. ATTGTAGA  0.279
9. AACGCGAA  0.257
10. CCAACACA  0.248
11. AAGTAACA  0.245
12. CGTTGTAG  0.242
13. GTTAGACA  0.231
14. GGGTTGTA  0.226
15. CGTATTTC  0.223
16. AGTGAGTA  0.218
17. AGGTACAA  0.21
18. CGCTATTA  0.2
19. AATGCGTG  0.197
20. ACTTGGTA  0.196
21. GTCGAGTA  0.195
22. ACGCACAT  0.176
23. ACCAGATA  0.163
24. CAATACCA  0.159
25. AAAAAGGT  0.155
26. TCTACTAA  0.153
27. ATTTACCG  0.152
28. CCAAGACA  0.143
29. TACTAATA  0.139
30. CAAAGGAA  0.132
31. AACCTGTA  0.131
32. ATTGAAGC  0.129
33. TATTTGAA  0.127
34. CCTGCTCA  0.127
35. AATCGCAT  0.126
36. TGCACGAA  0.122
37. AGTATCAT  0.118
38. CACTTTTA  0.117
39. AAGTAACT  0.115
40. TGCGCGAA  0.112
41. AACTAGGT  0.11
42. ACTTTACT  0.109
43. ACTGTTAT  0.105
44. ACGATCAA  0.101
45. GGTGAACA  0.098
46. ATTCCTCA  0.0961
47. TAGTAGAA  0.0946
48. ACTATTTG  0.092
49. ATAACTAT  0.09
50. GTCGTGCA  0.0844
51. GAGCCGTA  0.0752
52. GTACCAAA  0.0737
53. CATATGCG  0.0689
54. GCGCCTTA  0.0684
55. CGAAATCA  0.0682
56. AAATCTCT  0.067
57. AATTGAAA  0.0662
58. ACGTTGCA  0.063
59. AACCTCAA  0.0617
60. AGTCTTTA  0.0617
61. AGTTATTC  0.0578
62. CACCAATA  0.0563
63. AATCTGTG  0.0542
64. ACTACGAG  0.0505
65. ACGCAATC  0.0463
66. AGTGGTTA  0.036
67. TCAAAAAA  0.0304
68. CCGAAACA  0.0293
69. AAATCGCG  0.0275
70. ATACAGTG  0.0218
71. AGCAATTA  0.0202
72. CATGGGGC  0.0176
73. CTTAGACA  0.0152
74. CTTGACTA  0.0152
75. GCGCGCAC  0.0127
76. AGTGGACG  0.00558
77. CTCATGAC  0.00516
78. ACCTGCTC  0.00131
79. GATTCGAC  -0.00316
80. CGCACGTC  -0.00425
81. AATCCGGA  -0.0053
82. ATGCCGAA  -0.00556
83. ATTCCGAC  -0.00616
84. CGCTTACG  -0.00687
85. ACTCATAC  -0.00755
86. AACTGAGG  -0.0109
87. AGTGATAG  -0.0114
88. CATCATTC  -0.013
89. AGGGTAGG  -0.0165
90. AACGCTTA  -0.018
91. AACCACAA  -0.0241
92. CTTAGGCA  -0.0256
93. ACGCCGCC  -0.0262
94. GATAATCA  -0.0314
95. ACGTTCCA  -0.0324
96. ATGGGGTA  -0.0333
97. ATCTGCAT  -0.0336
98. AGACTAAT  -0.0364
99. CGCCTCAA  -0.0382
100. CAGAAGTA  -0.0394
101. AATGACTG  -0.0403
102. TATGCGAA  -0.0422
103. GCAATTCA  -0.0436
104. CTTGGCTA  -0.0467
105. AAGAGGTA  -0.0482
106. AACCAGTC  -0.0499
107. TCAACCCA  -0.0535
108. TCCATCGA  -0.0565
109. AACTAGCG  -0.0625
110. CGGTGACG  -0.0635
111. GCAGCCAA  -0.0695
112. AAGTCTAT  -0.0707
113. ATTCTGAC  -0.072
114. AAAGACTG  -0.0841
115. ACGGAGCA  -0.0861
116. CCAGAATC  -0.0873
117. CTAGTAGC  -0.0933
118. GAAGACGA  -0.0933
119. GAGATCGA  -0.094
120. CCGCTGAA  -0.0962
121. GTCCGGTA  -0.101
122. AGCTGGCG  -0.106
123. ATTCGAAT  -0.107
124. GCCTTGAC  -0.109
125. TCGGAAGA  -0.11
126. TACGGGCA  -0.11
127. CCAGCGGC  -0.113
128. ATGAGTGA  -0.114
129. TAGAGTGA  -0.114
130. CCATACGC  -0.115
131. ATAGATAG  -0.116
132. CATTTGGG  -0.125
133. CACTGAGG  -0.126
134. CCAAGCAG  -0.127
135. CCCAGGAA  -0.13
136. GCTCTAAC  -0.151
137. GACATCTC  -0.152
138. CGAAGCCA  -0.152
139. CCTTAGCG  -0.153
140. GGTAGAGA  -0.155
141. CTCATCTC  -0.16
142. CGACAGAC  -0.166
143. AGGTATCG  -0.17
144. CTGGGGTC  -0.17
145. GGGCTTAA  -0.171
146. AAGGTCTA  -0.174
147. AGCTGGAA  -0.179
148. GGCTCTTA  -0.184
149. ACCGTCAC  -0.185
150. GGCATGAC  -0.186
151. CTGGGGAC  -0.186
152. AAGCCTTA  -0.194
153. GCTGACCC  -0.195
154. AGGTAAGC  -0.198
155. CTCGGCTC  -0.201
156. GACCCCGC  -0.201
157. CAACTGGC  -0.203
158. CCAGCCGG  -0.222
159. GCGGCGAA  -0.225
160. ATGGATCC  -0.226
161. CCTGGACG  -0.23
162. GCCCAGAA  -0.237
163. AGACGGCG  -0.257
164. CTCGCGAC  -0.269
165. CCACCCTC  -0.271
166. GGGGTACC  -0.277
167. CGGAGGCA  -0.283
168. TCAGTGGA  -0.317
169. CCCCACTC  -0.323
170. CCTCCACC  -0.332
171. CGAGGACG  -0.334
172. AGGCGTGG  -0.379
